Test results reported in the supplement of paper PMC4723716.
Whole data set: some 3,600 compounds, median “viability index relative to DMSO control” near 0.81, cut for the lowest 2% near 0.13. This is one part of the list.

test system: Plasmodium falciparum NF54 stage V gametocytes; assay: viability index relative to DMSO control (fraction); higher = less gametocyte killing; conditions: 1.25 µM, incubation time: 72 h
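Further: 384-well serum-free SaLSSA: MitoTracker Red CMXRos staining with saponin lysis, high-content imaging, treated-well particle count divided by plate-mean count of DMSO wells.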

Compound | viability index
CC(C)NC(=O)N1CCN(C(=O)C(Cc2c[nH]c3ccccc23)NC(=O)Nc2cccc(Cl)c2Cl)CC1C (stereo not drawn) | 0.78
CCC1=NN2C(=N)/C(=C/c3cn(CCOc4ccccc4C(C)CC)c4ccccc34)C(=O)N=C2S1 (stereo not drawn) | 0.883
Oc1ccc(-c2cnccn2)cc1CNC1CCN(Cc2ccccc2)CC1 | 1.3
CCc1nnc2sc(-c3ccc(NC(=O)c4ccc(Br)o4)cc3)nn12 | 0.625
O=C1c2ccc3c4c(ccc(c24)C(=O)N1CCCCO)C(=O)N(CCCCO)C3=O | 0.423
Cc1ccc(NC(=O)c2ccc(NCCCN3CCC(C)CC3)c([N+](=O)[O-])c2)cc1F | 1.18
Cc1cc(Nc2ccc(O)cc2)nc2cccc(O)c12 | 0.735
CCCCN1C(=O)NC(c2ccc(NC(=O)c3cccs3)cc2)C(C(=O)OC(C)C)=C1C (stereo not drawn) | 0.726
COCCOC(=O)C1=C(C)NC2=C(C(=O)CC(c3ccc(OC)c(OC)c3)C2)C1c1ccc(F)cc1 (stereo not drawn) | 0.753
O=C(C=Cc1ccccc1)c1c(-c2ccccc2)c2cc([N+](=O)[O-])ccc2[nH]c1=O | 0.734
CC(=O)c1cccc(CN2CCC(C(=O)Nc3ccc(-n4nc(C)cc4C)cc3)CC2)c1 | 0.942
O=C(CSc1ccc2nnc(-c3cccs3)n2n1)Nc1ccc2c(c1)OCCO2 | 1.11
COc1ccc2cc(C)c3nnc(SCC(=O)N4CCN(C(=O)c5ccco5)CC4)n3c2c1 | 0.556
CC(C)N1CCc2c(sc(NC(=O)C(C)(C)C)c2C(N)=O)C1 | 0.897
CC(=O)Nc1nc(C)c(-c2csc(Nc3ccc(Br)cc3)n2)s1 | 0.322
CC(C)(C)NC(=S)NN=CC=NNC(=S)NC(C)(C)C | 0.299
CCc1cc(C(=O)N2CCC[C@@H]3CN(C(=O)c4ccc(F)cc4)CC[C@@H]32)n(C)n1 | 1.21
CCN1CCN(CC=Cc2ccccc2[N+](=O)[O-])CC1 | 0.804
O=C(O)C(Cc1ccc([N+](=O)[O-])cc1)NS(=O)(=O)c1ccc(OC(F)(F)F)cc1 (stereo not drawn) | 0.813
CC(C)CN1C(=O)c2ccccc2C(C(=O)NC2CCCCC2)C1c1cccs1 (stereo not drawn) | 0.727

Compound | viability index
O=C(CC1SC(=Nc2ccccc2)NC1=O)Nc1cc(Cl)ccc1Cl (stereo not drawn) | 0.539
O=C(NC(=CC=Cc1ccccc1)C(=O)N1CCOCC1)c1ccc(Br)cc1 | 1.25
Cc1cc(I)ccc1NC(=O)CNC(=O)OCc1ccccc1 | 1.19
CCOc1ccc(C(=O)Nc2cc(OC)ccc2OC)cc1 | 1.04
COc1ccc2c(c1)N(C)C(=Cc1cccc[n+]1C)S2 | 0.965
COc1cc(C2C3=C(CC(C)(C)CC3=O)Nc3ccccc3N2C(=O)C(C)C)cc(OC)c1OC (stereo not drawn) | 1.15
COc1ccc(-c2ncc([C@@H]3C[C@H]4CN(c5ccccc5)C(=O)[C@]45CCCN35)cn2)cc1 | 0.74
Cc1cc(C(C)(C)C)cc(S(=O)(=O)NCCO)c1C | 1.31
Cc1cc(N2CCN(Cc3ccccc3)CC2)n2c(nc3ccccc32)c1C#N | 0.757
CC(=NNC(=O)c1ccc([N+](=O)[O-])cc1)c1cccc([N+](=O)[O-])c1 | 0.771
COc1ccc(C2CC(=O)C3=C(C2)NC(C)=C(C(=O)OC(C)C)C3c2cccc(C)c2)cc1OC (stereo not drawn) | 0.834
CCc1c(C)nc2cc(-c3cc(OC)cc(OC)c3)nn2c1NCCCn1ccnc1 | 0.75
Oc1ncnc2c1C(c1ccccc1)c1c(O)ncnc1O2 | 1.03
CC(C)CCN(CCC(C)C)CC(O)Cn1c2ccc(Cl)cc2c2cc(Cl)ccc21 (stereo not drawn) | 0.614
O=C(Nc1ccc(-c2noc(CCc3ccccc3)n2)cc1)c1cccs1 | 0.66
CCCCCCCC[n+]1c(C)n(C)c2cc(Cl)c(Cl)cc21 | 0.817
Cc1ccc(C)c(Nc2nc(NCC3CCCO3)c3ccccc3n2)c1 (stereo not drawn) | 0.939
COc1cccc(NC(=O)Cn2c(C)c(C#N)c3ccccc32)c1 | 0.417
CC[n+]1c(C=CN(C)c2ccccc2)n(-c2ccccc2)c2ccc(-c3nc4ccccc4s3)cc21 | 0.163
O=C(NCCCN1CCOCC1)c1c[nH]c2ccc(S(=O)(=O)N3CCc4ccccc43)cc2c1=O | 0.875

Compound | viability index
N#Cc1c(N)nc2sc(C(=O)c3ccc(F)cc3)c(N)c2c1-c1ccccc1 | 0.784
COc1ccc(CCNC(=O)CC(=O)NN=Cc2ccc(Br)cc2)cc1OC | 0.902
CCN(CC)CCN(Cc1cc2cc(OC)ccc2[nH]c1=O)C(=S)Nc1cccc(Cl)c1 | 0.57
C=CC[N+]1(CC#Cc2cccc3ccccc23)CCCCC1 | 0.753
O=C(c1ccc(F)cc1Cl)N1CCN(c2nc(-c3cccs3)ns2)CC1 | 0.988
CC(=NNC(=O)c1ccc(C)cc1)c1ccccn1 | 0.294
CCCCN(CCCC)S(=O)(=O)c1nc(C)c(Cl)c(C)c1C#N | 0.808
Clc1cccc(Cl)c1C[n+]1ccc2ccccc2c1 | 0.749
O=C(c1cccs1)N1CCN(c2ccc([N+](=O)[O-])c(NC3CC3)c2)CC1 | 0.641
CN(C)CCn1cnc2sc3c(c2c1=O)CCC(NCc1cccc(Cl)c1)C3 (stereo not drawn) | 1.06
Oc1ccc(Cl)cc1CNc1nc2ccccc2[nH]1 | 1.16
Cc1ccc(-c2cc3nc4c(c(O)n3n2)CCCC4)cc1 | 0.828
O=[N+]([O-])c1cc(Cl)c(N2CCOCC2)cc1N1CCOCC1 | 0.793
Cc1ccc(S(=O)(=O)c2c(COC(=O)c3cccc(C)c3)c(-c3ccccc3)nn2C)cc1 | 0.755
CC=Cc1n(C)c2ccccc2[n+]1C | 0.826
CCOc1ccc2[nH]c(=O)c(C(c3nnnn3CCOC)N3CCCC3)cc2c1 (stereo not drawn) | 0.743
COc1ccc(/C=C(\NC(=O)c2ccccc2Br)C(=O)N2CC3CC(C2)c2cccc(=O)n2C3)cc1OC (stereo not drawn) | 0.868
Cc1cccc[n+]1CCCCCCCCCC[n+]1ccccc1C | 0.696
